# In PubChem BioAssay AID485294 (National Center for Advancing Translational Sciences (NCATS), 2010):
# Out of some 370,000 compounds screened, about 150 (0.041%) were called active. The inconclusive results got no clear call from the source; some entries with a clear call stand among them for comparison. The call rests on the fitted dose curve; in most records, active means well fitted inhibition curve with a large enough effect; inconclusive means small, poorly fitted or top-dose-only effect; inactive means flat fitted curve, though single readings scatter. Potencies of inconclusive entries are left out as doubtful fits.
# Molecular target: Beta-lactamase (Escherichia coli (strain K12)) (UniProt P00811)
# Test: qHTS Inhibitors of AmpC Beta-Lactamase (assay with detergent); further: nearly all actives have a fitted effect of over 25% in size;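 on activity change, negative = inhibition: 0% = no-compound wells and -100% = no-enzyme wells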
# Conditions: AmpC hydrolysis of nitrocefin, absorbance 480 nm, 0.01% Triton; activity change, negative = inhibition: at 114 µM (top of the series)
# Outline: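 AmpC (5.3 nM in the dispensed reagent) in 20 mM phosphate pH 7.0 with 0.01% (detergent screen) or 0.0001% Triton X-100 was preincubated with compounds for 15 min at room temperature. Nitrocefin was then added from an 800 uM solution, and hydrolysis was followed at 480 nm.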
# Potency means the concentration at half of the fitted maximal effect; tags describe the fitted curve by direction and shape.
# Sequence of UniProt P00811 (P00811 whole entry, looked up): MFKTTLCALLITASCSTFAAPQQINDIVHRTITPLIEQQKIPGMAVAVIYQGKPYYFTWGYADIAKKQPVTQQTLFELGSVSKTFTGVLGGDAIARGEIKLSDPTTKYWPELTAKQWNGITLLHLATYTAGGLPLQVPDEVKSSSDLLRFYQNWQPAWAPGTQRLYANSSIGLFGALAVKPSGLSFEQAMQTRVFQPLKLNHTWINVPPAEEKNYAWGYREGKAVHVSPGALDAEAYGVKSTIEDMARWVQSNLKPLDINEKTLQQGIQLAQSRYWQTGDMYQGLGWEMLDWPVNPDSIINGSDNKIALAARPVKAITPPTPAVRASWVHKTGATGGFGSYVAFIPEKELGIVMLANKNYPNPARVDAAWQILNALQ
SMILES,Potency,"activity change, negative = inhibition"
CCSc1nnc(NC(=O)c2cc(OC)c(OC)c(OC)c2)s1,"inconclusive [inhibitor, full curve]",–
Cc1ccc(C)c2c1cc(C)c1nnc(SCC(=O)c3cccs3)n12,"inconclusive [inhibitor, partial curve]",–
COC(=O)c1c(NC(=O)C2C3C=CC(CC3)C2C(=O)O)sc(C)c1C (centres undefined),"inconclusive [inhibitor, full curve, poor fit]",–
CC(C)(C)OC(=O)NCCCCCNC(=O)c1[nH]cnc1C(=O)Nc1ccc(Cl)cc1,–,inactive: 2.21%
O=C(N/N=C/c1ccc[nH]1)c1ccncc1,"inconclusive [inhibitor, single point]",–
CC(C)OC(=O)C1CC=CCC1C(=O)Nc1ccc(Cl)cc1 (centres undefined),"inconclusive [inhibitor, single point]",–
CC1(C(=O)NCCN2CCOCC2)C=CC2(CCCCC2)N1C(=O)c1ccccc1 (centres undefined),"inconclusive [inhibitor, full curve, poor fit]",–
O=C(CCn1c(=O)c2ccccc2n(CC(=O)NC2CCCC2)c1=O)NCCc1ccc(Cl)cc1,"inconclusive [inhibitor, partial curve, poor fit]",–
COc1ccc(N(CC(=O)N/N=C/c2cccnc2)S(=O)(=O)c2ccc(C)cc2)cc1OC,"inconclusive [inhibitor, full curve, poor fit]",–
COC(=O)c1sc2ccccc2c1NC(=O)c1ccc(S(=O)(=O)N2CCC(C)CC2)cc1,"inconclusive [inhibitor, partial curve, poor fit]",–
CC(=O)NS(=O)(=O)c1ccccc1,"inconclusive [inhibitor, full curve]",–
COC(=O)[C@@H](NC(=O)O[C@@H]1C(=O)c2cc(Br)ccc2O[C@H]1c1cccc(OC)c1)C(C)C,"inconclusive [inhibitor, full curve]",–
COc1ccc(C(=O)/C=C/c2cc(C(=O)O)cc3c2OCOC3)c(O)c1,"inconclusive [inhibitor, single point]",–
Cc1ccc2sc3ccc(NC(=O)c4ccccc4Cl)cc3c(=O)c2c1,–,inactive: 3.01%
CCc1ccc(CCC(=O)Nc2ccc(S(N)(=O)=O)cc2)o1,"inconclusive [inhibitor, partial curve]",–
CC(C)c1ccccc1NC(=O)c1cccnc1,"inconclusive [inhibitor, full curve, poor fit]",–
COc1ccc(NS(=O)(=O)c2ccc3c(c2)CCN3C(=O)CCC(=O)O)cc1Cl,–,inactive: -6.8%
O=C(CSC1=NCCS1)N1CCN(c2ccccc2)CC1,"inconclusive [inhibitor, full curve]",–
CCc1cc(CNC(=O)CCc2nnc(Cc3cccc(C)c3)o2)on1,–,inactive: -5.67%
COc1cccc(NC(=O)C2CCC2)c1,"inconclusive [inhibitor, single point]",–
CC(C)(C)n1ncc2c(=O)n(CC(=O)NCc3ccccc3)cnc21,–,inactive: -5.26%
Cc1ccc(CC(=O)N2CCOCC2)cc1,"inconclusive [inhibitor, full curve, poor fit]",–

SMILES,Potency,"activity change, negative = inhibition"
N/C(=N\OC(=O)Nc1ccc(Cl)c(Cl)c1)c1ncc(C(F)(F)F)cc1Cl,"inconclusive [inhibitor, full curve, poor fit]",–
CC(=O)Nc1cc(S(=O)(=O)C(F)(F)F)ccc1Cl,"inconclusive [inhibitor, full curve, poor fit]",–
O=C(CNCc1ccccc1)Nc1ccc(Cl)cc1,–,inactive: 0.161%
C=CCn1c(-c2ccccc2)n[nH]c1=S,–,inactive: 9.74%
CCn1cnc2cc(NCc3ccc(Br)cc3)ccc21,–,inactive: 1.36%
Cc1ccc(NC(=O)CSCc2ccco2)cc1,"inconclusive [inhibitor, partial curve, poor fit]",–
COc1ccc(-c2csc3nc(-c4cccnc4)nc(N4CCC(C(N)=O)CC4)c23)cc1OC,–,inactive: 9.99%
Fc1ccc(N2CCN(c3ncnc4nc[nH]c34)CC2)cc1,"inconclusive [inhibitor, full curve, poor fit]",–
O=C(c1ccc(NS(=O)(=O)c2cccs2)cc1)N1CCCCC1,"inconclusive [inhibitor, partial curve]",–
O=C(Cc1cccc2ccccc12)Nc1cc(C(=O)O)cc(C(=O)O)c1,"inconclusive [inhibitor, full curve]",–
COc1ccc(OC)c(-c2csc(NC(=O)Cc3cc(OC)c(OC)c(OC)c3)n2)c1,–,inactive: -4.45%
CC(=O)Nc1nnc(Cc2ccccc2)s1,"inconclusive [inhibitor, full curve, poor fit]",–
CCOc1cccc(N2C(=O)CC(NCc3ccc(S(N)(=O)=O)cc3)C2=O)c1 (centres undefined),"inconclusive [inhibitor, full curve]",–
CCn1cc(C(=O)Nc2ccc(-n3cnnn3)c(OC)c2)c(=O)c2ccc(C)nc21,"inconclusive [inhibitor, full curve, poor fit]",–
CCC(C)n1c(=N)c(C#N)cc2c(=O)n3ccccc3nc21 (centres undefined),"inconclusive [inhibitor, partial curve]",–
COC(=O)c1sccc1NC(=O)Nc1ccc(C)cc1C,"inconclusive [inhibitor, full curve]",–
COc1ccc(C=C(C(C)=O)C(C)=O)cc1OC,"inconclusive [inhibitor, full curve, poor fit]",–
CCOC(=O)c1cccc(NC(=O)C2CCCN(S(=O)(=O)c3ccc4c(c3)oc(=O)n4C)C2)c1 (centres undefined),–,inactive: -4.71%
COc1ccc(C(=O)COC(=O)c2ccc(OC)c(OC)c2)cc1OC,"inconclusive [inhibitor, single point]",–
CN(/N=C/C=C/c1ccccc1)C1=NS(=O)(=O)c2ccccc21,"inconclusive [inhibitor, full curve]",–
OC(CN1CC=C(c2ccccc2)CC1)c1ccccc1 (centres undefined),–,inactive: -4.23%
CCN(CC(=O)Nc1c(F)cccc1F)C(=O)CSc1nc2ccccc2o1,"inconclusive [inhibitor, full curve, poor fit]",–
